Test results reported in a compilation of properties of binary mixtures (doi:10.1016/j.molliq.2017.08.019).
The densities may have been worked out from excess volumes.

Test: xn = mol fraction of the nth substance listed
Conditions: 100 kPa

CCCC[n+]1ccn(C)c1.O=S(=O)([O-])C(F)(F)F + CCCC[n+]1ccn(C)c1.F[P-](F)(F)(F)(F)F
mass density [kg/m3]
Conditions | 293.15 K | 298.15 K | 303.15 K | 308.15 K | 313.15 K | 318.15 K | 323.15 K | 328.15 K
x2 = 0 | 1301.5 | 1297.5 | – | 1289.7 | 1285.7 | 1281.8 | 1277.9 | 1273.9
x2 = 0.0005 | 1301.5 | 1297.6 | – | 1289.7 | – | 1281.9 | – | 1274
x2 = 0.0006 | 1301.5 | 1297.6 | 1293.7 | 1289.7 | – | – | – | 1274
x2 = 0.0007 | 1301.5 | – | 1293.7 | 1289.7 | 1285.8 | 1281.9 | 1278 | 1274
x2 = 0.0009 | 1301.5 | 1297.6 | 1293.7 | 1289.8 | – | 1281.9 | 1278 | 1274.1
x2 = 0.0018 | 1301.6 | – | 1293.8 | 1289.8 | 1285.9 | – | 1278.1 | 1274.2
x2 = 0.0061 | – | 1298.1 | 1294.2 | 1290.3 | 1286.4 | 1282.5 | 1278.5 | 1274.7
x2 = 0.01 | 1302.4 | 1298.5 | 1294.5 | 1290.6 | 1286.8 | 1282.9 | 1279 | 1275.1
x2 = 0.0501 | 1305.8 | 1302 | 1298.2 | 1294.4 | 1290.7 | 1286.9 | 1283.1 | 1279.3
x2 = 0.0806 | 1308.4 | – | – | 1297.1 | 1293.4 | 1289.7 | 1286 | 1282.2
x2 = 0.1 | 1310 | 1306.2 | – | 1298.8 | 1295.1 | 1291.5 | 1287.8 | 1284
x2 = 0.15 | – | 1310.3 | 1306.5 | – | 1299.3 | – | 1292.1 | –
x2 = 0.1999 | – | 1314.2 | 1310.4 | – | – | – | 1296.1 | –
x2 = 0.3 | 1325.7 | 1321.7 | 1317.7 | 1314.3 | 1310.7 | – | – | 1299.5
x2 = 0.3999 | 1333.1 | 1328.8 | 1324.5 | 1321 | 1317.4 | 1313.7 | 1310.1 | 1305.7
x2 = 0.5002 | 1340.1 | 1335.5 | 1331.2 | 1327.6 | – | 1319.9 | 1316.2 | 1311.8
x2 = 0.6 | 1346.6 | 1342 | 1337.6 | 1333.8 | 1329.7 | 1326 | 1322 | 1317.7
x2 = 0.7 | – | 1348.2 | 1343.9 | 1340 | 1335.7 | 1331.9 | 1327.9 | 1323.7
x2 = 0.7995 | 1358.7 | 1354.2 | 1349.9 | 1345.9 | – | 1337.9 | 1333.6 | 1329.7
x2 = 0.8997 | 1364.8 | 1360.5 | 1356.1 | 1352 | 1348 | – | – | 1335.8

CCCC[n+]1ccn(C)c1.F[P-](F)(F)(F)(F)F + CCCC[n+]1ccn(C)c1.O=S(=O)([O-])C(F)(F)F
x1 = 1
Conditions | mass density [kg/m3]
293.15 K | 1371.4
298.15 K | 1367.2
303.15 K | 1362.9
308.15 K | 1358.8
313.15 K | 1354.7
323.15 K | 1346.5
328.15 K | 1342.4
